Results published in PMC4336329 (PLoS ONE, 2015).
Hit rate of the full screen: of about 310,000 compounds, about 14,000 (4.5%) showed an effect of 50% or more. The effect is printed as a negative number. The list shows a part of the results.

What follows are compounds tested against human ether-à-go-go-related gene (hERG) potassium channel (human, UniProt Q12809) (assay: primary screen, population patch clamp on CHO cells stably expressing hERG).
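Also: peak tail current of the secondary pulse compared with the same well before compound.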

Chain of human ether-à-go-go-related gene (hERG) potassium channel (Q12809 whole entry, looked up): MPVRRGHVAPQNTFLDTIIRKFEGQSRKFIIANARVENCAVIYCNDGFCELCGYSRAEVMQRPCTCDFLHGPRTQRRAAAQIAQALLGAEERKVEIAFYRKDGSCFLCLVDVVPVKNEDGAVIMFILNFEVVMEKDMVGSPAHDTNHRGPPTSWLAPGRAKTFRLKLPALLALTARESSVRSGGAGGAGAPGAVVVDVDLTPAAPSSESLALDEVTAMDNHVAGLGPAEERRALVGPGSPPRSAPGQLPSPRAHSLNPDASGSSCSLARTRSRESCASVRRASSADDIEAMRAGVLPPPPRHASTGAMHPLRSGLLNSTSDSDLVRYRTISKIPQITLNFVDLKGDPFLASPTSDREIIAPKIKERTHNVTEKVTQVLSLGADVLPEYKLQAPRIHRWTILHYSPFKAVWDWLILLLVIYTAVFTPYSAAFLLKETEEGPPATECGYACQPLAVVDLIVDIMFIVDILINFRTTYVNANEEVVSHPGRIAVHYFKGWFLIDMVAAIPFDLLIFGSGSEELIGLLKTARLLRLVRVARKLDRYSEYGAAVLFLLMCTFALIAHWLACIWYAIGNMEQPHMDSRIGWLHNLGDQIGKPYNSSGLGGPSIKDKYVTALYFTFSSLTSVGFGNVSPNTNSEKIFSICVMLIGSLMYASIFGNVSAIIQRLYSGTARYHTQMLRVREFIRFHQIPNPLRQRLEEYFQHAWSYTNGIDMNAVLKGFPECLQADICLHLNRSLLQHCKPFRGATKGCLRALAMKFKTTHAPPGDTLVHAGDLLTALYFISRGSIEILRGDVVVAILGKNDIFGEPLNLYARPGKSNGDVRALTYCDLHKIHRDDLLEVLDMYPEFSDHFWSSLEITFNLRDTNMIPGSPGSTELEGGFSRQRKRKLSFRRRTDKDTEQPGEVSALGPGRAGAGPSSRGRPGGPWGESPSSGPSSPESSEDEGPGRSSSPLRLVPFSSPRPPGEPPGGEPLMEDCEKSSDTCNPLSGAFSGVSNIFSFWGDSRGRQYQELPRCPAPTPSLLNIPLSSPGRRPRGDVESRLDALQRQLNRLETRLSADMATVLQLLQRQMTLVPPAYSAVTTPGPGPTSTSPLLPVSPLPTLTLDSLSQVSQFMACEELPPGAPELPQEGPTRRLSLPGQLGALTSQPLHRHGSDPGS

Structure (SMILES) | hERG current change (%, negative = inhibition) at 10uM
C/C=C/c1ccc(OCCCCOc2c(OC)cccc2OC)c(OC)c1 | 7.41%
Oc1ccc(C=Nc2cccc3ccccc23)c(O)c1 | 13.4%
C=CCn1c(SCc2nc3sc4c(c3c(=O)[nH]2)CCCC4)nc2ccccc2c1=O | 1.55%
O=C(CN1CCc2ccccc21)Nc1ccc2c(c1)OCO2 | 11.4%
COc1ccccc1C1SCCN1S(C)(=O)=O (stereo not shown) | -0.718%
O=C(Nc1ccc2nn(-c3ccccc3)nc2c1)c1ccc2c(c1)OCCO2 | 26.3%
CCn1ncc(/C=N/O)c1C | 6.93%
CCc1ccc2[nH]c(=O)c(CN(Cc3ccccc3OC)Cc3nnnn3Cc3ccco3)cc2c1 | -14.3%
CS(=O)(=O)c1ccc(C(=O)NCC2(N3CCCCC3)CCCCC2)cc1 | -11%
Cc1ccc(-c2cc(C(=O)NN3CCOCC3)c3cc(Br)ccc3n2)o1 | 16.1%
COc1ccc(/C=C2\SC(=S)N(CCCC(=O)Nc3cc(C)on3)C2=O)cc1OC | 0.863%
CCOC(=O)N1CCC(NS(=O)(=O)c2ccc3c(c2)oc(=O)n3C)CC1 | 1.74%
CC(C)Cn1c(=O)c2ccccc2n2c(CCC(=O)NCc3ccccn3)nnc12 | -8.48%
COc1ccc(Cn2nnnc2CN(Cc2cc3cc(C)ccc3[nH]c2=O)C2CCCC2)cc1 | 4.92%
Cc1ccc(S(=O)(=O)NC(=O)Nc2ccccc2)cc1 | 7%
O=C(O)CCC(=O)NNC(=O)CCC1CCCCC1 | 13.1%
CC(C)OP(=O)(c1ccc(N(C)C)cc1)C(O)c1ccc(Br)cc1 (stereo not shown) | 2.74%
CCc1nc(Nc2cccc(OC)c2)c2oc3ccccc3c2n1.Cl | 10.6%
CCCc1cc(C(=O)OC)c2ccccc2n1 | -10.9%
CCCCN(C(=O)c1c(C)noc1C)c1c(N)n(CCC)c(=O)[nH]c1=O | -6.29%
O=C(CSc1nc2ccccc2n1S(=O)(=O)c1ccccc1)N1CCCC1 | 1.22%
O=C(O)c1cccc(NC(=O)c2cccc(NC(=O)C3CCCO3)c2)c1 (stereo not shown) | -4.17%
O=C(/C=C/Nc1ccccc1O)c1ccco1 | 5.62%

Structure (SMILES) | hERG current change (%, negative = inhibition) at 10uM
Cc1ccc(C)c(S(=O)(=O)N2CCCC2CNC(=O)C(=O)NCCc2ccccc2)c1 (stereo not shown) | -40.7%
Cc1cc(C)c2nc(N3CCC(C(=O)NCC4CCCO4)CC3)sc2c1 (stereo not shown) | -9.12%
CN(C(=O)CSc1nnc(N)s1)C1CCCCC1 | -1.75%
COc1ccc(OC)c(NC(=O)CCN2CCN(C)CC2)c1.Cl | -0.547%
CCOC(=O)c1ccc(N(CC(=O)NC2CCCCC2)C(=O)CNC(=O)c2ccco2)cc1 | -34.1%
Cc1cccc(N2CCN(C(=O)COc3cc(=O)n(C)c4ccccc34)CC2)c1C | -61.2%
Cc1ccc(NC(=O)c2cc(C)nn2-c2ccccc2)cc1 | -3.24%
N#Cc1c(Nc2cccc(F)c2)sc2c(O)cc(=O)[nH]c12 | 27.3%
O=C(c1ccccc1)N1CCC(O)(c2ccc3c(c2)OCO3)CC1 | -12.4%
Cc1ccc(-c2nc3ccccc3c(=O)n2-c2cc(C)ccn2)cc1 | -5.15%
COc1cccc(NC(=O)CSc2nncn2-c2ccccn2)c1 | -17.3%
COc1ccccc1CCNC(=O)CSc1ccc(-c2cccs2)nn1 | -28.9%
C=CCn1c(=S)[nH]c2scc(-c3ccc(C)o3)c2c1=O | 19.2%
Cc1ccc2c(c1)N(C(=O)CCC(=O)NCc1cccc(Br)c1)CC(C)O2 (stereo not shown) | -48.2%
O=C(C1CC(=O)N(C2CCCCC2)C1)N1CCN(c2cccc(C(F)(F)F)c2)CC1 (stereo not shown) | -29.7%
Cc1ccc(NCCC(=O)c2ccc(Cl)cc2)cc1 | -11.5%
CC(=O)Nc1ccc(NC(=O)CCn2c(=O)oc3ccccc32)cc1 | 17.6%
COc1ccccc1CNC(=O)C1CCCN(S(=O)(=O)c2ccc3c(c2)C(C)(C)C(=O)N3C)C1 (stereo not shown) | -15.9%
O=C(Nc1cccnc1)c1ccc(Oc2ccccc2)cc1 | 4.9%
CN(C)CCn1c(N)nc2ccccc21 | 8.35%
CC1(C)Cc2ccccc2C(/C(=N\Nc2cccc(Cl)c2)C(N)=O)=N1 | -2.96%
Cc1cc(C(=O)OCC(=O)N2CCN(C(=O)c3ccco3)CC2)c(C)n1-c1ccc(F)cc1 | -66.4%
O=C(C1CCN(S(=O)(=O)c2ccc(Cl)c(C(F)(F)F)c2)CC1)N1CCC1 | -28.7%
